We go through 70 compounds from PubChem BioAssay AID488969 (Vanderbilt High Throughput Screening Facility, 2010).

Over roughly 110,000 compounds, “z-score” has its median near -0.1; the highest 2% begin near 2. The list shows a part of the results.

The target in the assay is Metabotropic glutamate receptor 8 (Rattus norvegicus) (UniProt P70579). Nature of the assay: rat mGluR8 modulators via GIRK flux, primary screen, cell-based, thallium flux, HTS (AID 488969). As to conditions: HEK293 rat mGluR8, GIRK (G protein-gated inwardly rectifying potassium channel) thallium flux, FluoZin2; at 10 µM; stronger effect = higher value; submaximal glutamate (EC20) added with thallium.
Sequence of UniProt P70579 (P70579 whole entry, looked up): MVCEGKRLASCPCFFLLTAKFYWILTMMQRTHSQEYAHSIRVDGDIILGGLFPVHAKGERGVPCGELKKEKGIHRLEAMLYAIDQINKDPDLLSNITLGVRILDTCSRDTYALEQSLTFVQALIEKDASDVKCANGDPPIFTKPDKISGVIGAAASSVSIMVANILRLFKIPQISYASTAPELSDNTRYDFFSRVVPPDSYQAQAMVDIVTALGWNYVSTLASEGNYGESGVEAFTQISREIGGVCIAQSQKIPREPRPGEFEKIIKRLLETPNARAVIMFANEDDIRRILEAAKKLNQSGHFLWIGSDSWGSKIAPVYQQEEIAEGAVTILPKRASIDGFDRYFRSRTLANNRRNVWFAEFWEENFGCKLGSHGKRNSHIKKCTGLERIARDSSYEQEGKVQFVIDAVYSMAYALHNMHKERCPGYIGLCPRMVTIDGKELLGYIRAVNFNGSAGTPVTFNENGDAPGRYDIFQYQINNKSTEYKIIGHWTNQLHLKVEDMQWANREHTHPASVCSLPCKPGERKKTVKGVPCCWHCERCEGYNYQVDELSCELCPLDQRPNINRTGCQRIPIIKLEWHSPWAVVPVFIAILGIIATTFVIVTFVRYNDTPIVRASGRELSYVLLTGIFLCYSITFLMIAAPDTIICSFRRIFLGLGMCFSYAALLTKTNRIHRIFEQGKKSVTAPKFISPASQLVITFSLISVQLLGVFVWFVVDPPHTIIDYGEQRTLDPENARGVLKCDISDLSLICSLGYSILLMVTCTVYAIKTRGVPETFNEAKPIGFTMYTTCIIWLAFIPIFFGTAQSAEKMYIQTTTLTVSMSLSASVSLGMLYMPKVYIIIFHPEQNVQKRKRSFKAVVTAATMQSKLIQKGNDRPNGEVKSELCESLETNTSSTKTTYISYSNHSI
In the case of `CN(c1ccccc1C(=O)NCc1ccco1)S(C)(=O)=O`, the z-score turned out to be 0.172. With `O=C(NCCCN1CCOCC1)C1CC(=O)N(C2CCCCC2)C1` (stereo not given), the z-score is 1.11. Then `CCc1cccc(NC(=O)Cn2c(=O)oc3cc(S(=O)(=O)N4CCOCC4)ccc32)c1`, with 0.177. Regarding `O=C1C=C(O)CC(c2ccc(Cl)c(Cl)c2)C1` (stereo not given), the z-score amounted to 0.382. As to `CC(C)(C)OC(=O)[C@H]1[C@H](c2ccc([N+](=O)[O-])cc2)C2(C(=O)c3ccccc3C2=O)C2c3ccccc3C=NN21` (stereo not given in full), the z-score stood at 0.333.

`O=C(Nc1ccc(N2CCN(C(=O)c3ccc(Cl)cc3)CC2)cc1)c1ccc2c(c1)OCCO2` gave a z-score of 0.185.

`O=C(CSc1nc2ccccc2s1)NCCOc1ccc(Cl)cc1` returned a z-score of -0.16. Then `Cc1ccc(S(=O)(=O)Nc2ccc3c(c2)CCC3)cc1C`, with -0.272; and `CCn1cc(/C=N/NC(=O)c2ccc(C#N)cc2F)c2ccccc21`, with -0.41. With `O=C(NCc1ccco1)C1CC(=O)N(c2ccc(F)cc2)C1` (stereo not given), the z-score stood at 0.992.

Consider `O=C(CSc1nnnn1C1CCCC1)c1ccc2c(c1)OCCO2`, for which the z-score worked out at 0.831. `c1ccc(OCCSc2nc3ccccc3[nH]2)cc1`: the z-score is 2.69. Then `Cc1ccccc1NC(=O)/C(=C\c1cccs1)NC(=O)c1ccco1`, with 0.0471; and `Cc1cc(Nc2nc(Cl)c(Cl)cc2Cl)n(-c2ccccc2)n1`, with -0.0716.

`O=C(CCn1c2c(c3ccccc31)CCCC2)NNC(=O)c1ccc([N+](=O)[O-])cc1`: the z-score was 0.131. In turn, `COc1ccc(C2C(C(=O)OCC(=O)NC(C)(C)C)CCC(=O)N2c2ccc(C)cc2)cc1OC` (stereo not given) registered a z-score of -0.0992.

`COc1ccc(-c2nc(-c3ccc(Br)o3)no2)cc1` registered a z-score of -0.349. The result for `Nc1nc(SCC(=O)Nc2ccccc2)nc2nc3c(cc12)CCCC3` reads -0.698; that for `COc1ccc(OC(C)C(=O)N2CCc3ccccc3C2)cc1` (stereo not given), -0.75; that for `CCOC(=O)N1CCN(CC(O)c2ccc3cc[nH]c3c2)CC1` (stereo not given), -0.345. As to `CC(=O)Nn1cnc2c(c1=O)C1(CCCCC1)Cc1ccccc1-2`, the z-score was -0.31. Then `COc1cc(C2Nc3ccccc3C(=O)N2c2ccccc2)ccc1O` (stereo not given), with -0.488; and `CC1CCN(C(=O)c2ccc(-n3cnnn3)cc2)CC1`, with -0.0833.

Regarding `CC1CCN(S(=O)(=O)c2ccc(NC(=O)Cn3nnc(-c4ccccc4F)n3)cc2)CC1`, the z-score is -0.0396. The result for `COc1ccc(Nc2nc(NCc3ccco3)nc(N/N=C/c3ccccc3)n2)cc1` reads -0.241; that for `Brc1ccc(OCc2nc(-c3ccccn3)n[nH]2)cc1`, -0.18; that for `CCCCCCNC(=O)CC(NS(=O)(=O)c1ccc(NC(C)=O)cc1)C(C)C` (stereo not given), -0.277.

As to `CC(=O)c1ccc(N2C(=O)[C@@H]3C(C(=O)CCN4C(=O)c5ccccc5C4=O)=NN[C@@H]3C2=O)cc1`, the z-score amounted to 0.0874. Compound `O=C(Cc1ccc(-n2c(=O)[nH]c3ccsc3c2=O)cc1)N1CCN(c2ccc(Cl)cc2)CC1` returned a z-score of -0.435. Then `CNc1ncc(C(=O)C(C)(C)C)s1`, with 0.159. As for `CN(C)C(/C=C/Nc1ccc(F)cc1)=C(C#N)C#N`, the z-score is -0.0377.

On to `COC(=O)COc1ccc(S(=O)(=O)Nc2ccc(NC(C)=O)cc2)cc1`, for which the z-score stood at 0.0187.

For the compound `COc1ccnc(NCc2cccnc2)c1C#N`, the z-score was -0.18.

Regarding `COC(=O)N/N=C/c1cc(Cl)c(OCc2ccc(F)cc2)c(OC)c1`, the z-score was -0.458.

The compound `CN=C1S/C(=C\c2ccc(N3CCOCC3)cc2C)C(=O)N1C` yielded a z-score of -0.0829. `Cc1csc(NC(=O)c2cc3c(s2)CCC3)n1` gave a z-score of -0.258. The result for `COc1ccccc1Cn1c(=O)c2ccccc2n2c(SCC(=O)N3CCCCC3)nnc12` reads -0.38; that for `O=C(c1cccnc1)N1CCN(Cc2cccc(Br)c2)CC1`, -0.0523; that for `CCCc1cc(=O)[nH]c(SCC(=O)N(CC(C)C)C2CCS(=O)(=O)C2)n1` (stereo not given), -0.0784. Then `COc1cc2c(cc1NC(=O)CSc1ccc(Cl)cc1)oc1ccccc12`, with -0.483; and `Cc1ncc(C[n+]2csc(CCOC(=O)CC34CC5CC(CC(C5)C3)C4)c2C)c(N)n1`, with 0.357; and `Cc1ccc(S(=O)(=O)NC(CC(=O)N2CCc3ccccc32)c2ccco2)cc1` (stereo not given), with -0.465. `COc1ccc(-c2nnc3ccc(SC(C(C)=O)C(C)=O)nn23)cc1OC`: the z-score was -0.0547. Then `COC(=O)c1cc(=O)nc2sc(-c3cccs3)nn12`, with -0.0873; and `CCn1c(=O)cc(OCC(=O)NCCCN2CCC(C)CC2)c2ccccc21`, with 0.709; and `CNC(=O)c1[nH]cnc1C(=O)Nc1ccccc1OC`, with 0.94. The compound `O=S(=O)(c1ccc2c(c1)OCCO2)N1CCN(c2cccc(Cl)c2)CC1` came in with a z-score of 0.401. `C=CCNC(=O)/C(=C/c1ccccc1OCC)NC(=O)c1ccccc1` displayed a z-score of -0.0384. The result for `CC(=O)Nc1ccc(S(=O)(=O)NC2(C(F)(F)F)NC(=O)N(C3CCCCC3)C2=O)cc1` (stereo not given) reads -0.0965; that for `Cc1cc2ccccc2c(=O)n1CC(=O)NCC(=O)N1CCN(c2cccc(Cl)c2)CC1`, -0.598; that for `CC(C)(C)c1ccc(OCC(=O)NNC(=S)NC(=O)c2ccccc2[N+](=O)[O-])c(Br)c1`, 0.0129. Then `CCN(CC)S(=O)(=O)c1cc(OC)c(Cl)cc1Cl`, with 0.902.

The compound `COC(=O)c1cccc(NC(=O)NC23CC4CC(CC(C4)C2)C3)c1` displayed a z-score of -0.16. Regarding `Cc1cccc(NC(=S)N2CCn3cccc3C2c2cccnc2)c1` (stereo not given), the z-score was 0.448.

Compound `CC(=O)Nc1ccnc(-c2cccnc2)n1` had a z-score of -0.13. Then `COC(=O)c1sc(=S)n(-c2ccccc2)c1N`, with 0.461; and `COc1cccc(-c2nnc(SC(C(=O)c3c[nH]c4ccccc34)c3ccccc3)n2C)c1` (stereo not given), with -0.273. `O=C1C=C(Nc2cccc(Cl)c2)CC(c2ccco2)C1` (stereo not given) returned a z-score of 0.259. With `Cc1c(O)c2cccnc2[nH]c1=O`, the z-score came to 0.271. The compound `CCCCC(=O)NCc1ccc2c(c1)cc(C)n2C` had a z-score of -0.0318. The result for `COc1ccc(CCN=C(N)NS(=O)(=O)c2ccc(OC)cc2)cc1` reads -0.241. The compound `O=C(NCCCN1CCOCC1)C1(c2ccccc2)CCCC1` came in with a z-score of -0.541.

As to `O=c1cc(O)n(-c2ccc(Cl)cc2)c(=S)[nH]1`, the z-score is -0.295. As to `CCOC(=O)c1sc(NC(=S)NC(=O)CC(C)C)cc1C`, the z-score worked out at 0.291. Then `O=C(Nc1cccc(F)c1)N1CCN(C/C=C/c2ccccc2)CC1`, with -0.579.

`Cc1ccccc1CSCCNC(=O)CSCc1ccc([N+](=O)[O-])cc1` came in with a z-score of -0.215. `Cc1nn(-c2ccccc2)c(N2CCCC2)c1/C=N/NC(=O)c1cc2ccccc2cc1O` came in with a z-score of -0.617.

Compound `Cc1ccc(NC(=O)CN(C)CC(=O)Nc2c(C)cccc2C)c(Br)c1` registered a z-score of 0.011.

The compound `COC(c1ccccc1)c1c(-c2ccccc2)nn(C)c1Cl` (stereo not given) registered a z-score of -0.346. As to `CCCCOc1ccc(CNC(=S)N/N=C/c2ccc(OC)c(OC)c2)cc1`, the z-score was -0.0858.
